{
  "source": "a collection of fitness landscapes (doi:10.1126/science.1257360)",
  "parents": {"B1": {"name": "PhoQ; a variant is named by its letters at X, in order, P23837 (parent)", "chain": "MKKLLRLFFPLSLRVRFLLATAAVVLVLSLAYGMVALIGYSVSFDKTTFRLLRGESNLFYTLAKWENNKLHVELPENIDKQSPTMTLIYDENGQLLWAQRDVPWLMKMIQPDWLKSNGFHEIEADVNDTSLLLSGDHSIQQQLQEVREDDDDAEMTHSVAVNVYPATSRMPKLTIVVVDTIPVELKSSYMVWSWFIYVLSANLLLVIPLLWVAAWWSLRPIEALAKEVRELEEHNRELLNPATTRELTSLVRNLNRLLKSERERYDKYRTTLTDLTHSLKTPLXXLQXXLRSLRSEKMSVSDAEPVMLEQISRISQQIGYYLHRASMRGGTLLSRELHPVAPLLDNLTSALNKVYQRKGVNISLDISPEISFVGEQNDFVEVMGNVLDNACKYCLEFVEISARQTDEHLYIVVEDDGPGIPLSKREVIFDRGQRVDTLRPGQGVGLAVAREITEQYEGKIVAGESMLGGARMEVIFGRQHSAPKDE"}},
  "note": "The other results are listed elsewhere or left out.",
  "data": [
    {"variants_of": "B1", "assay": "enrichment ratio after two sorts for PhoP signalling (ratio (wild type AVST 3.29)); higher = more functional", "conditions": "with PhoP (E. coli)", "values": [
      {"variant": "SEPP", "enrichment ratio": "≤ 0.25"},
      {"variant": "IHCA", "enrichment ratio": "≤ 0.25"},
      {"variant": "YDKW", "enrichment ratio": "≤ 0.25"},
      {"variant": "AWDT", "enrichment ratio": "≤ 0.25"},
      {"variant": "GRES", "enrichment ratio": "≤ 0.25"},
      {"variant": "WRNQ", "enrichment ratio": "≤ 0.25"},
      {"variant": "MVTY", "enrichment ratio": "≤ 0.25"},
      {"variant": "LYDA", "enrichment ratio": "≤ 0.25"},
      {"variant": "WLMF", "enrichment ratio": "≤ 0.25"},
      {"variant": "LIYN", "enrichment ratio": 1.32},
      {"variant": "FVQF", "enrichment ratio": "≤ 0.25"},
      {"variant": "IKEC", "enrichment ratio": "≤ 0.25"},
      {"variant": "KGEG", "enrichment ratio": "≤ 0.25"},
      {"variant": "FKHN", "enrichment ratio": "≤ 0.25"},
      {"variant": "SCPE", "enrichment ratio": "≤ 0.25"},
      {"variant": "GGTV", "enrichment ratio": 8.45},
      {"variant": "CISL", "enrichment ratio": "≤ 0.25"},
      {"variant": "WSED", "enrichment ratio": "≤ 0.25"},
      {"variant": "EPTN", "enrichment ratio": "≤ 0.25"},
      {"variant": "YRYY", "enrichment ratio": "≤ 0.25"},
      {"variant": "MKYK", "enrichment ratio": "≤ 0.25"},
      {"variant": "FNHG", "enrichment ratio": "≤ 0.25"},
      {"variant": "FMLR", "enrichment ratio": "≤ 0.25"},
      {"variant": "VLHY", "enrichment ratio": "≤ 0.25"},
      {"variant": "APPW", "enrichment ratio": "≤ 0.25"},
      {"variant": "DSVV", "enrichment ratio": "≤ 0.25"},
      {"variant": "TKNT", "enrichment ratio": 8.4},
      {"variant": "IWGY", "enrichment ratio": "≤ 0.25"},
      {"variant": "SGNT", "enrichment ratio": "≤ 0.25"},
      {"variant": "QSST", "enrichment ratio": 6.68},
      {"variant": "LSTY", "enrichment ratio": "≤ 0.25"},
      {"variant": "LHDF", "enrichment ratio": "≤ 0.25"},
      {"variant": "DVVM", "enrichment ratio": "≤ 0.25"},
      {"variant": "SCGT", "enrichment ratio": 6.01},
      {"variant": "DRVP", "enrichment ratio": "≤ 0.25"},
      {"variant": "VGLH", "enrichment ratio": 1.9},
      {"variant": "IKIT", "enrichment ratio": "≤ 0.25"},
      {"variant": "VPVE", "enrichment ratio": "≤ 0.25"},
      {"variant": "MENC", "enrichment ratio": "≤ 0.25"},
      {"variant": "VWLK", "enrichment ratio": "≤ 0.25"},
      {"variant": "GWQG", "enrichment ratio": "≤ 0.25"},
      {"variant": "IRGR", "enrichment ratio": "≤ 0.25"},
      {"variant": "ITVC", "enrichment ratio": "≤ 0.25"},
      {"variant": "MNVS", "enrichment ratio": "≤ 0.25"},
      {"variant": "QIDI", "enrichment ratio": "≤ 0.25"},
      {"variant": "NIFN", "enrichment ratio": "≤ 0.25"},
      {"variant": "KLNS", "enrichment ratio": "≤ 0.25"},
      {"variant": "MQWY", "enrichment ratio": "≤ 0.25"},
      {"variant": "FDNF", "enrichment ratio": "≤ 0.25"},
      {"variant": "NTFH", "enrichment ratio": "≤ 0.25"},
      {"variant": "AGGW", "enrichment ratio": 0.253},
      {"variant": "TESN", "enrichment ratio": 20.2},
      {"variant": "NYMG", "enrichment ratio": "≤ 0.25"},
      {"variant": "SRMA", "enrichment ratio": "≤ 0.25"},
      {"variant": "LPDI", "enrichment ratio": "≤ 0.25"},
      {"variant": "GGSL", "enrichment ratio": 3.4},
      {"variant": "LEIC", "enrichment ratio": "≤ 0.25"},
      {"variant": "NWLR", "enrichment ratio": "≤ 0.25"},
      {"variant": "QVDP", "enrichment ratio": "≤ 0.25"},
      {"variant": "SCRS", "enrichment ratio": "≤ 0.25"},
      {"variant": "EIRN", "enrichment ratio": "≤ 0.25"},
      {"variant": "QDCF", "enrichment ratio": "≤ 0.25"},
      {"variant": "YVAM", "enrichment ratio": "≤ 0.25"},
      {"variant": "LGWA", "enrichment ratio": "≤ 0.25"},
      {"variant": "MGFS", "enrichment ratio": 2.82},
      {"variant": "DLNS", "enrichment ratio": "≤ 0.25"},
      {"variant": "KGVC", "enrichment ratio": "≤ 0.25"},
      {"variant": "LSPQ", "enrichment ratio": "≤ 0.25"},
      {"variant": "QDVI", "enrichment ratio": "≤ 0.25"},
      {"variant": "RYNH", "enrichment ratio": "≤ 0.25"},
      {"variant": "QAYP", "enrichment ratio": "≤ 0.25"},
      {"variant": "DAEF", "enrichment ratio": "≤ 0.25"},
      {"variant": "KCQL", "enrichment ratio": "≤ 0.25"},
      {"variant": "QADH", "enrichment ratio": 0.951},
      {"variant": "SSMD", "enrichment ratio": 3.52},
      {"variant": "LCML", "enrichment ratio": 4.84},
      {"variant": "RSNP", "enrichment ratio": "≤ 0.25"},
      {"variant": "HMQD", "enrichment ratio": "≤ 0.25"},
      {"variant": "FCGC", "enrichment ratio": "≤ 0.25"},
      {"variant": "RGMG", "enrichment ratio": "≤ 0.25"},
      {"variant": "EKGR", "enrichment ratio": "≤ 0.25"},
      {"variant": "LKYL", "enrichment ratio": "≤ 0.25"},
      {"variant": "KAVH", "enrichment ratio": "≤ 0.25"},
      {"variant": "FPMW", "enrichment ratio": "≤ 0.25"},
      {"variant": "QNKL", "enrichment ratio": "≤ 0.25"},
      {"variant": "IKCH", "enrichment ratio": "≤ 0.25"},
      {"variant": "SNKK", "enrichment ratio": "≤ 0.25"},
      {"variant": "SCDR", "enrichment ratio": "≤ 0.25"},
      {"variant": "WDNY", "enrichment ratio": "≤ 0.25"},
      {"variant": "ILVW", "enrichment ratio": "≤ 0.25"},
      {"variant": "TDID", "enrichment ratio": "≤ 0.25"},
      {"variant": "KNVY", "enrichment ratio": "≤ 0.25"},
      {"variant": "KQSD", "enrichment ratio": "≤ 0.25"},
      {"variant": "VYAD", "enrichment ratio": "≤ 0.25"},
      {"variant": "KAPK", "enrichment ratio": "≤ 0.25"},
      {"variant": "IPNC", "enrichment ratio": "≤ 0.25"},
      {"variant": "LDNM", "enrichment ratio": "≤ 0.25"},
      {"variant": "FSID", "enrichment ratio": "≤ 0.25"},
      {"variant": "EDWF", "enrichment ratio": "≤ 0.25"},
      {"variant": "FEAR", "enrichment ratio": "≤ 0.25"},
      {"variant": "PFGF", "enrichment ratio": "≤ 0.25"},
      {"variant": "PSTK", "enrichment ratio": "≤ 0.25"},
      {"variant": "GLHG", "enrichment ratio": "≤ 0.25"},
      {"variant": "AIMI", "enrichment ratio": 5.72},
      {"variant": "FTPS", "enrichment ratio": "≤ 0.25"},
      {"variant": "HCAW", "enrichment ratio": "≤ 0.25"},
      {"variant": "QVHI", "enrichment ratio": "≤ 0.25"},
      {"variant": "SFLH", "enrichment ratio": "≤ 0.25"},
      {"variant": "FHYL", "enrichment ratio": "≤ 0.25"},
      {"variant": "ISKF", "enrichment ratio": "≤ 0.25"},
      {"variant": "IEPT", "enrichment ratio": "≤ 0.25"},
      {"variant": "TSGY", "enrichment ratio": 14.8},
      {"variant": "GVQF", "enrichment ratio": "≤ 0.25"},
      {"variant": "NWQH", "enrichment ratio": "≤ 0.25"},
      {"variant": "TQFQ", "enrichment ratio": 9.67},
      {"variant": "YRTH", "enrichment ratio": "≤ 0.25"},
      {"variant": "VRHY", "enrichment ratio": "≤ 0.25"},
      {"variant": "WNSW", "enrichment ratio": "≤ 0.25"},
      {"variant": "ITMV", "enrichment ratio": 5.93},
      {"variant": "KTGH", "enrichment ratio": "≤ 0.25"},
      {"variant": "GTLH", "enrichment ratio": 8.02},
      {"variant": "LESM", "enrichment ratio": "≤ 0.25"},
      {"variant": "WRYH", "enrichment ratio": "≤ 0.25"},
      {"variant": "MKIY", "enrichment ratio": "≤ 0.25"},
      {"variant": "FDAN", "enrichment ratio": "≤ 0.25"},
      {"variant": "GTFQ", "enrichment ratio": "≤ 0.25"},
      {"variant": "YLVI", "enrichment ratio": "≤ 0.25"},
      {"variant": "EFRS", "enrichment ratio": "≤ 0.25"},
      {"variant": "QTYP", "enrichment ratio": "≤ 0.25"},
      {"variant": "TYTT", "enrichment ratio": 0.277},
      {"variant": "TEGW", "enrichment ratio": "≤ 0.25"},
      {"variant": "TRFN", "enrichment ratio": "≤ 0.25"},
      {"variant": "QVWP", "enrichment ratio": "≤ 0.25"},
      {"variant": "QMQI", "enrichment ratio": "≤ 0.25"},
      {"variant": "QSSC", "enrichment ratio": 10.7},
      {"variant": "RSFR", "enrichment ratio": "≤ 0.25"},
      {"variant": "SVFN", "enrichment ratio": "≤ 0.25"},
      {"variant": "QFWD", "enrichment ratio": "≤ 0.25"},
      {"variant": "VACM", "enrichment ratio": 1.74},
      {"variant": "NIHV", "enrichment ratio": "≤ 0.25"},
      {"variant": "WKFK", "enrichment ratio": "≤ 0.25"},
      {"variant": "LPPW", "enrichment ratio": "≤ 0.25"},
      {"variant": "DRVM", "enrichment ratio": "≤ 0.25"},
      {"variant": "HMEW", "enrichment ratio": "≤ 0.25"},
      {"variant": "TKWE", "enrichment ratio": "≤ 0.25"},
      {"variant": "KDWP", "enrichment ratio": "≤ 0.25"},
      {"variant": "DAPT", "enrichment ratio": "≤ 0.25"},
      {"variant": "AQYT", "enrichment ratio": "≤ 0.25"},
      {"variant": "GKDG", "enrichment ratio": "≤ 0.25"},
      {"variant": "SFVE", "enrichment ratio": "≤ 0.25"},
      {"variant": "KVRY", "enrichment ratio": "≤ 0.25"},
      {"variant": "AGQL", "enrichment ratio": 11.6},
      {"variant": "QLEF", "enrichment ratio": "≤ 0.25"}
    ]}
  ]
}
